# Some of the results follow.
# B1: MGL2 (Mus musculus), Q8JZN1 (protein)
# chain: MTMRYENFQNLEREEKNQEMRNGDKKGGMESPKFALIPSQSFLWRILSWTHLLLFSLGLSLLLLVVISVIGSQNSQLRRDLGTLRAILDNTTSKIKAEFQSLDSRADNFEKGISSLKVDVEDHRQELQAGRDLSQKVTSLESTLEKREQALKTDLSDLTDHVQQLETDLKALTCQLANLKNNGSEVACCPLHWTEHEGSCYWFSESEKSWPEADKYCRLENSHLVVVNSLEEQNFLQNRLANVLSWMGLTDQNGPWRWVDGTDFDKGFKNWRPLQPDNWHGHMLGGGEDCAHFSYDGRWNDDVCQRHYHWICETELGKASSAHSPQLIASVP
# Legend:
# Experiment in all cases: glycan array binding signal (z-score within array); higher = stronger binding
# Conditions in all cases: glycan notation: IUPAC condensed, linker removed
# [1] = target: GalNAc(a1-3)GalNAc(b1-3)Gal(a1-4)Gal(b1-4)GlcNAc
# Procedure, shortened: (§1)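 The Consortium for Functional Glycomics database supplied 3228 glycan arrays, of which those lacking an available protein sequence were dropped. The binding signal, a within-array Z-score, was averaged across arrays of the same protein sequence and across linkers. Negative scores can be read as non-binding.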
# GalNAc(b1-3)Gal = target: GalNAc(b1-3)Gal
# Procedure, shortened: as §1
# [2] = target: GalNAc(b1-3)Gal(a1-4)Gal(b1-4)GlcNAc
# Procedure, shortened: as §1
# [3] = target: GalNAc(b1-3)Gal(a1-4)Gal(b1-4)GlcNAc(b1-3)Gal(b1-4)Glc
# Procedure, shortened: as §1
# [4] = target: GalNAc(b1-3)Gal(a1-6)Gal(b1-4)Glc
# Procedure, shortened: as §1
# GalNAc(b1-3)GalNAc = target: GalNAc(b1-3)GalNAc
# Procedure, shortened: as §1
# GalNAc(b1-3)GlcNAc = target: GalNAc(b1-3)GlcNAc
# Procedure, shortened: as §1
# GalNAc(b1-4)Gal(b1-4)Glc = target: GalNAc(b1-4)Gal(b1-4)Glc
# Procedure, shortened: as §1
# GalNAc(b1-4)GlcNAc = target: GalNAc(b1-4)GlcNAc
# Procedure, shortened: as §1
# [5] = target: GalNAc(b1-4)GlcNAc(b1-2)Man
# Procedure, shortened: as §1
# [6] = target: GalNAc(b1-4)GlcNAc(b1-2)Man(a1-3)[GalNAc(b1-4)GlcNAc(b1-2)Man(a1-6)]Man(b1-4)GlcNAc(b1-4)GlcNAc
# Procedure, shortened: as §1
# [7] = target: GalNAc(b1-4)GlcNAc(b1-3)GalNAc(b1-4)GlcNAc
# Procedure, shortened: as §1
# GalNAc(b1-4)GlcNAc6S = target: GalNAc(b1-4)GlcNAc6S
# Procedure, shortened: as §1
# GalNAc(b1-6)GalNAc = target: GalNAc(b1-6)GalNAc
# Procedure, shortened: as §1
# GalNAc3S(b1-4)GlcNAc = target: GalNAc3S(b1-4)GlcNAc
# Procedure, shortened: as §1
# GalNAc3S(b1-4)GlcNAc3S = target: GalNAc3S(b1-4)GlcNAc3S
# Procedure, shortened: as §1
# [8] = target: GalNAc3S(b1-4)[Fuc(a1-3)]GlcNAc
# Procedure, shortened: as §1
# GalNAc4S6S(b1-4)GlcNAc = target: GalNAc4S6S(b1-4)GlcNAc
# Procedure, shortened: as §1
# GalNAc6S(b1-4)GlcNAc = target: GalNAc6S(b1-4)GlcNAc
# Procedure, shortened: as §1
# Glc(a1-4)Glc = target: Glc(a1-4)Glc
# Procedure, shortened: as §1
# [9] = target: Glc(a1-4)Glc(a1-4)Glc(a1-4)Glc
# Procedure, shortened: as §1
# Glc(a1-6)Glc(a1-6)Glc = target: Glc(a1-6)Glc(a1-6)Glc
# Procedure, shortened: as §1
# [10] = target: Glc(a1-6)Glc(a1-6)Glc(a1-6)Glc
# Procedure, shortened: as §1
# Glc(b1-4)Glc = target: Glc(b1-4)Glc
# Procedure, shortened: as §1
# Glc(b1-6)Glc = target: Glc(b1-6)Glc
# Procedure, shortened: as §1
# GlcA(b1-3)Gal = target: GlcA(b1-3)Gal
# Procedure, shortened: as §1
# GlcA(b1-3)GlcNAc = target: GlcA(b1-3)GlcNAc
# Procedure, shortened: as §1
# GlcA(b1-6)Gal = target: GlcA(b1-6)Gal
# Procedure, shortened: as §1
# [11] = target: GlcA3S(b1-3)Gal(b1-4)GlcNAc(b1-2)Man
# Procedure, shortened: as §1
# [12] = target: GlcA3S(b1-3)Gal(b1-4)GlcNAc(b1-3)Gal(b1-4)Glc
# Procedure, shortened: as §1
# [13] = target: GlcNAc(a1-3)Gal(b1-4)GlcNAc
# Procedure, shortened: as §1
# [14] = target: GlcNAc(a1-4)Gal(b1-3)GlcNAc
# Procedure, shortened: as §1
# [15] = target: GlcNAc(a1-4)Gal(b1-4)GalNAc
# Procedure, shortened: as §1
# [16] = target: GlcNAc(a1-4)Gal(b1-4)GlcNAc
# Procedure, shortened: as §1
# [17] = target: GlcNAc(a1-4)Gal(b1-4)GlcNAc(b1-3)Gal(b1-4)Glc
# Procedure, shortened: as §1
# [18] = target: GlcNAc(a1-4)Gal(b1-4)GlcNAc(b1-3)Gal(b1-4)GlcNAc
# Procedure, shortened: as §1
# [19] = target: GlcNAc(a1-4)Gal(b1-4)GlcNAc(b1-3)Gal(b1-4)GlcNAc(b1-3)Gal(b1-4)GlcNAc
# Procedure, shortened: as §1
# [20] = target: GlcNAc(a1-4)Gal(b1-4)GlcNAc(b1-3)Gal(b1-4)[Fuc(a1-3)]GlcNAc(b1-3)Gal(b1-4)[Fuc(a1-3)]GlcNAc
# Procedure, shortened: as §1
binder,measurement,setting,value
B1,glycan array binding signal (z-score),[1],-0.291
same,glycan array binding signal (z-score),GalNAc(b1-3)Gal,4.95
same,glycan array binding signal (z-score),[2],0.739
same,glycan array binding signal (z-score),[3],0.003
same,glycan array binding signal (z-score),[4],0.191
same,glycan array binding signal (z-score),GalNAc(b1-3)GalNAc,-0.19
same,glycan array binding signal (z-score),GalNAc(b1-3)GlcNAc,8.82
same,glycan array binding signal (z-score),GalNAc(b1-4)Gal(b1-4)Glc,-0.127
same,glycan array binding signal (z-score),GalNAc(b1-4)GlcNAc,5.73
same,glycan array binding signal (z-score),[5],0.962
same,glycan array binding signal (z-score),[6],-0.063
same,glycan array binding signal (z-score),[7],2.48
same,glycan array binding signal (z-score),GalNAc(b1-4)GlcNAc6S,3.46
same,glycan array binding signal (z-score),GalNAc(b1-6)GalNAc,-0.3
same,glycan array binding signal (z-score),GalNAc3S(b1-4)GlcNAc,-0.304
same,glycan array binding signal (z-score),GalNAc3S(b1-4)GlcNAc3S,-0.186
same,glycan array binding signal (z-score),[8],-0.19
same,glycan array binding signal (z-score),GalNAc4S6S(b1-4)GlcNAc,-0.236
same,glycan array binding signal (z-score),GalNAc6S(b1-4)GlcNAc,1.15
same,glycan array binding signal (z-score),Glc(a1-4)Glc,-0.213
same,glycan array binding signal (z-score),[9],-0.088
same,glycan array binding signal (z-score),Glc(a1-6)Glc(a1-6)Glc,-0.176
same,glycan array binding signal (z-score),[10],0.014
same,glycan array binding signal (z-score),Glc(b1-4)Glc,-0.143
same,glycan array binding signal (z-score),Glc(b1-6)Glc,-0.253
same,glycan array binding signal (z-score),GlcA(b1-3)Gal,-0.219
same,glycan array binding signal (z-score),GlcA(b1-3)GlcNAc,0.307
same,glycan array binding signal (z-score),GlcA(b1-6)Gal,-0.193
same,glycan array binding signal (z-score),[11],-0.216
same,glycan array binding signal (z-score),[12],-0.239
same,glycan array binding signal (z-score),[13],-0.297
same,glycan array binding signal (z-score),[14],-0.232
same,glycan array binding signal (z-score),[15],-0.217
same,glycan array binding signal (z-score),[16],-0.29
same,glycan array binding signal (z-score),[17],-0.291
same,glycan array binding signal (z-score),[18],-0.191
same,glycan array binding signal (z-score),[19],-0.133
same,glycan array binding signal (z-score),[20],-0.135
